Hit rate of the full screen: of about 310,000 compounds, about 2,200 (0.71%) showed an effect of 50% or more. The effect is printed as a negative number. The list shows a part of the results.
These compounds were tested against human ether-à-go-go-related gene (hERG) potassium channel (human, UniProt Q12809) (assay: primary screen, population patch clamp on CHO cells stably expressing hERG).
Chain of human ether-à-go-go-related gene (hERG) potassium channel (Q12809 whole entry, looked up): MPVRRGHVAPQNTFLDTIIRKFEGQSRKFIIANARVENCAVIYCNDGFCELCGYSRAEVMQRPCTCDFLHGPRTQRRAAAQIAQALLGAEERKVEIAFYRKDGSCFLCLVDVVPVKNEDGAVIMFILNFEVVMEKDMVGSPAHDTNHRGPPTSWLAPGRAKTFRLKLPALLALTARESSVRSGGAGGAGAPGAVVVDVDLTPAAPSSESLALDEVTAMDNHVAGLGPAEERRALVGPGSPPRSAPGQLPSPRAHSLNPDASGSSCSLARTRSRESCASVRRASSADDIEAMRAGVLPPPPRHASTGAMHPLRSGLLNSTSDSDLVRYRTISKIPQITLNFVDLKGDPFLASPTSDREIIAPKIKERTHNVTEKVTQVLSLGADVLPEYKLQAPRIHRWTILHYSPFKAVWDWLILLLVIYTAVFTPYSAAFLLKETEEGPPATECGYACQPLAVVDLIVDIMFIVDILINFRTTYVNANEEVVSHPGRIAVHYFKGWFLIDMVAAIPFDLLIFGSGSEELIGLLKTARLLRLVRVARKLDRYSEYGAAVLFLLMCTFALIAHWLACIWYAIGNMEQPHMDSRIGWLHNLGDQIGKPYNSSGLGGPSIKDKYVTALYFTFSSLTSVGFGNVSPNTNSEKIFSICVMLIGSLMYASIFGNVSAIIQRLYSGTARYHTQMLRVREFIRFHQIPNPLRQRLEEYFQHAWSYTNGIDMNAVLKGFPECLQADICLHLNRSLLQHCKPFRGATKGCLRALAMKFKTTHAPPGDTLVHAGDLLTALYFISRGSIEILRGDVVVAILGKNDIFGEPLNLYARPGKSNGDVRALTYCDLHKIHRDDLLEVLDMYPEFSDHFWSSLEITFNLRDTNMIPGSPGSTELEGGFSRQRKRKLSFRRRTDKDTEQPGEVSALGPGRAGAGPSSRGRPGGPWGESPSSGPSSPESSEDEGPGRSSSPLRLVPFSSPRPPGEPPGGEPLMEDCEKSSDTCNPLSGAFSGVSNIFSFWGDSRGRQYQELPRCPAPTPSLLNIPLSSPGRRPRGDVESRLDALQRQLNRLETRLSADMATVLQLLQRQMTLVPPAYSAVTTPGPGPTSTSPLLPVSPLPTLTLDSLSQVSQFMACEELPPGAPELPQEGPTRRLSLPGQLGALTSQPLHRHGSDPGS

SMILES | hERG current change (%, negative = inhibition) at 1uM [%]
COc1ccccc1C(=O)NCC(=O)NNC(=O)C1COc2ccccc2O1 (stereo not drawn) | 9.8
Cc1cc(C)c(C(=O)NCCCN2CCOCC2)c(C)c1 | 11.1
Cc1cc(N2CCCC2)nc(-c2ccccc2O)n1 | 1.62
CCOc1ccc(-n2c(SCC(=O)Nc3ccc4c(c3)OCO4)nc3ccccc3c2=O)cc1 | 12.6
CC(C)CCn1nnnc1CN1CCN(c2ccc(F)cc2)CC1 | 0.776
COc1ccc(-c2nnc(NC(=O)c3ccc(F)cc3)o2)cc1 | 11.5
CC(C)(C)OC(=O)N1CCC(C(=O)N2CCCCCC2)CC1 | 12.6
[Cl-].c1ccc(-[n+]2nc(Nc3cccc4ccccc34)sc2-c2c3ccccc3cc3ccccc23)cc1 | 17.6
COc1cccc(/C=C/c2onc(C)c2S(=O)(=O)N2CCC(C(=O)NC3CCCCCC3)CC2)c1 | 2.31
Cc1ccc2c(c1)N(C(=O)CCC(=O)NCCN1CCOCC1)CCO2 | 6.54
O=C1CCN(c2ccc([N+](=O)[O-])cc2F)CC1 | 13.2
Cc1ccc(NC(=O)CCN2C(=O)c3ccccc3S2(=O)=O)cc1F | 4.54
O=C(Nc1ccc(Cl)cc1)c1csc(Cc2ccccc2)n1 | 12.4
C/C(Cn1nc([N+](=O)[O-])cc1C)=N\NC(=O)c1ccc(C(C)(C)C)cc1 | -0.797
CC(=O)Nc1nc2ccc(-c3nc4ccccc4o3)cc2s1 | 9.18
CC(Cc1cccs1)NC(=O)NC1CCCCC1 (stereo not drawn) | 9.41
O=[N+]([O-])c1cc(C(F)(F)F)cc([N+](=O)[O-])c1NCCCN1CCOCC1 | 1.8
Nc1cccc2c1C(=O)N(C(=O)c1ccc(S(=O)(=O)N3CCCCCC3)cc1)C2=O | 7.91
O=P(c1ccccc1)(c1ccccc1)C(O)c1ccc(Br)cc1 (stereo not drawn) | 19.2
CCCCn1c(-c2cccc3ccccc23)nc2cc3[nH]c(=O)c(C(C)C)nc3cc21 | 3.21
CC(=O)N1CN2CN(C1)CN(C(C)=O)C2 | 7.53
CCC(=NCCCN(CC)CC)c1c(O)n(-c2ccccc2)c(=O)[nH]c1=O | 3.7

SMILES | hERG current change (%, negative = inhibition) at 1uM [%]
COc1ccc(N2C(=O)NC(=O)/C(=C/c3ccc4c(c3)Cc3ccccc3-4)C2=O)cc1 | 7.65
CC(C)CN1CCC(=O)N(CCOc2ccccc2)CC1 | 15.5
COc1ccc(C(=O)NCc2nnc(SCC(=O)N3CCC(C)CC3)o2)cc1OC | 10.9
COC(=O)c1nc2ccccc2s1 | 11.7
Cc1onc(-c2ccccc2)c1C(=O)Nc1ccncc1 | 15.3
Cc1ccc(NS(=O)(=O)c2cc(C(=O)NCc3ccccn3)ccc2Cl)cc1 | 13.6
COc1ccc(N2CCN(C(CNC(=O)C(C)(C)C)c3ccco3)CC2)cc1 (stereo not drawn) | 2.34
CCc1ccc(CN(C)CC(=O)Nc2ccccc2[N+](=O)[O-])cc1 | 6.79
CP(=O)(COC(=O)c1ccccc1)COC(=O)c1ccccc1 | 1.81
O=C(NCCN1CCCc2ccccc21)C1CCC(=O)N(CCc2ccccc2)C1 (stereo not drawn) | 10.6
O=C(CSc1nc2ccccc2c(=O)n1-c1ccccc1)N1CCC1 | 18.3
CC1=C(C(=O)OCc2ccccc2)C(c2ccoc2)C(C#N)=C(N)O1 (stereo not drawn) | 7.02
CCc1c(C(=O)NNC(=S)NCc2ccccc2)csc1C | -1.77
CCN(C(=O)CSC1=Nc2ccccc2C2CC=NN12)C1CCS(=O)(=O)C1 (stereo not drawn) | 16.7
CCN(CC)CCN(C(=O)/C=C/c1cccs1)c1nc2ccc(F)cc2s1.Cl | 4.44
Nc1ccc(-c2nc(-c3ccccc3)nc3ccccc23)cc1 | 5.79
COCCn1c(SCC(=O)Nc2cc(C(C)(C)C)nn2-c2ccccc2)nc2ccccc2c1=O | 5.83
Cc1ccc2nc(SCc3ccc([N+](=O)[O-])cc3)nc(C)c2c1 | 4.51
Cc1nc2ccccc2c(=O)n1/N=C/c1c(O)ccc2ccccc12 | 7.32
Cc1ccc(Nc2nc(N)c([N+](=O)[O-])c(NCc3ccco3)n2)cc1C | 10.1
Nc1ccc(N2CCCCC2)c(Cl)c1 | 15.1
Fc1ccc(-n2cc(-c3ccccc3)c3c(NN4CCOCC4)ncnc32)cc1 | -0.354

SMILES | hERG current change (%, negative = inhibition) at 1uM [%]
COc1ccc(CN2CCN(C(=O)c3c(-c4ccccc4)noc3C)CC2)cc1F | -1.74
CN(C)CCN=Cc1c(O)n(Cc2ccc3c(c2)OCO3)c(=S)[nH]c1=O | 10.7
Cc1cc(OC(=O)c2ccco2)c2c3c(c(=O)oc2c1)CCC3 | 10.4
CN=c1scc(-c2ccc(OC)cc2)n1/N=C(\C)c1cccnc1 | 19.5
O=c1c(Cl)c(Nc2cccc(Cl)c2)cnn1-c1nc2ccccc2s1 | 11.6
Cc1nn(-c2ccccc2)c2c1C(c1ccncc1)C(C#N)=C(N)O2 (stereo not drawn) | 10.3
CN1CCN(C(=O)c2cc3ccccc3[nH]2)CC1 | 11.9
COc1ccc(/C=N/N(C)c2cc(=O)n(C)c(=O)[nH]2)cc1OC | 15.5
CC(OC(=O)c1ccc2c(c1)C(=O)N(Cc1ccncc1)C2=O)C(=O)Nc1cccc(Cl)c1Cl (stereo not drawn) | 4.8
CCOc1ccccc1OCC(=O)Nc1cccc(S(=O)(=O)NC2=NCCCCC2)c1 | -5.2
Cc1nc2ccccc2c(=O)n1/N=C/c1ccc(C(C)C)cc1 | 19.4
Cc1ccc(-c2nnn(CC(=O)NCCC3=CCCCC3)n2)cc1 | 18.4
CCc1cc(C(=O)Nc2cc(S(=O)(=O)N(CC)CC)ccc2N2CCOCC2)sc1C | 12.5
O=C(NCc1ccco1)c1ccc(N2CCCC2=O)cc1 | 6.75
O=C1CCc2nc3ccccc3c(=O)n2N1 | 14.2
Cc1ccc2cc(CN(CC3CCCO3)C(=O)C(C)C)c(=O)[nH]c2c1 (stereo not drawn) | -4.78
CC(=O)OC(C(=O)N1CCN(c2ccc(F)cc2)CC1)c1ccccc1 (stereo not drawn) | -0.58
NC(=O)c1ccc(NC(=O)CSc2cn(CC(=O)N3CCOCC3)c3ccccc23)cc1 | 15.4
Cc1ccc(S(=O)(=O)c2c(C(=O)c3ccccc3)cnc3cc4c(cc23)OCCO4)cc1 | 10.9
CC(C)CN=Cc1c(O)c([N+](=O)[O-])cc2oc3c(c12)CCCC3 | 5.26
COC1C(OC(=O)c2ccc(C)[nH]2)C(O)C(Oc2ccc3c(O)c(NC(=O)c4ccc(O)c(CC=C(C)C)c4)c(=O)oc3c2Cl)OC1(C)C (stereo not drawn) | 12.9
CC/C(=N/NC(=O)c1ccc2c(c1)OCO2)c1ccccc1O | 9.19

SMILES | hERG current change (%, negative = inhibition) at 1uM [%]
Nc1ccccc1-n1cccc1 | 11
COC(=O)c1[nH]c2ccc(C)cc2c1NC(=O)C(C)N1CCN(C2CCCCC2)CC1 (stereo not drawn) | -81
O=C(O)c1ccc(Cl)c(N2C(=O)Nc3ccccc3N2O)c1 | 11.4
COc1cccc(C(=O)c2cc3cc(Cl)ccc3[nH]2)c1 | 15
Cc1c(CCC(=O)N2CCC(C(=O)NCCCCCC(=O)O)CC2)c(=O)oc2cc3oc4c(c3cc12)CCCC4 | 12.8
C=CCOc1ccc(/C=N/NC(=O)C2CCCC2)cc1OCC | 1.48
COC(=O)[C@H](CC(C)C)NS(=O)(=O)N[C@@H](CC(C)C)C(=O)OC | 17.4
CSc1nc(=NC(C)=O)ss1 | 14.4
COc1ccc(CN2C(=O)c3cccnc3C2=O)cc1S(=O)(=O)N1CC(C)Oc2ccccc21 (stereo not drawn) | 5.45
Cc1ccc(NC(=O)N2CCC(NC(=O)c3cccc(F)c3)CC2)cc1 | 5.18
COc1cccc(CNc2cnc3ccccc3c2)c1O | 14.9
O=c1c2ccccc2n(Cc2ccccc2F)c(=O)n1Cc1ccccc1F | 17.4
CCOc1ccc(C(C(=O)NCC2CCCO2)N(Cc2cccs2)C(=O)c2snc(C(N)=O)c2N)cc1 (stereo not drawn) | 13
COC(=O)C1=C(C)NC(=S)N(C(C)=O)C1c1ccc(OC)c(OC)c1 (stereo not drawn) | 8.84
Cc1cc(C)n2nc3nc(N4CCCCC4)nc(-c4ccco4)c3c2n1 | 17.3
CCC(NC(=O)COC(=O)C1CC2CCCC(C1)C2=O)c1ccc(Br)cc1 (stereo not drawn) | 12
O=c1[nH]c(Nc2nc3ccccc3o2)nc2c1CCCC2 | 10.2
O=C(CCNC(=O)c1ccc(Cl)cc1)NCc1cccc(C(F)(F)F)c1 | 8.11
COC(=O)c1c(/N=C/NOCc2ccc(Cl)cc2)sc2c1CCN(c1ncc(C(F)(F)F)cc1Cl)C2 | 8.22
CCN(CC(=O)NCc1ccc(Cl)cc1)C(=O)CCOc1ccc(C)cc1 | -38.8
COc1cccc(N2CCN(C(=O)CN3C(=O)NC(C)(c4ccc5ccccc5c4)C3=O)CC2)c1 (stereo not drawn) | -10.5
